The record followed here is the supplement of paper PMC11417369.

This is one part of the list.

The assay relates to PF3D7_0420300 AP2 domain 1 (GST-tagged). Put plainly: gcPBM binding intensity (ln(normalized median fluorescence intensity)); higher = stronger DNA binding. The method in brief:
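GST-tagged P. falciparum DNA-binding domains, expressed in E. coli (about 25 μg on average), were applied for 1 h to an Agilent 4 × 180k array of primer-extended double-stranded 36-bp intergenic genomic probes plus negative controls. The binding buffer was 1× PBS with 1% milk, 0.2 mg/ml BSA, 0.5% salmon testes DNA and 0.03% Triton X-100. Bound protein was detected with Alexa488 anti-GST antibody and scanned at 488 nm. Binding intensity is the highest Masliner-normalised natural-log median intensity across replicate spots of either probe orientation.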
For “TATATTAAAGGGGTTTCACACACATGTATAATTAAT [CACACA_site7950]”, the “gcPBM binding intensity (ln)” value was determined as 9.52.
As for “TATTATTTAATCAAATGTACATAGAAAATGTATGTA [XGTACX_site4433]”, the figure is 9.08; as for “ATGTAAAATTAATATTGTACTTTTCCATCATGATAC [XGTACX_site2669]”, 9.14; as for “AATAGGAAAGATTTTGCATGTGATATAAGTAATTTT [TGCATGCA_site657]”, 9.27.
Next, “TTTATATGATACACACGTACATATACACATATACAC [XGTACX_site8123]”: 9.62; “TATATATATATTTTTGCACACATTTTTTAAGGTACA [CACACA_site2145]”: 9.53.
Next, “CATATAATAAATAGATGTACAGACTATATATATATA [XGTACX_site6575]”: 9.35; “TATAATATTTATATAACACACATATAGATTTATTTA [CACACA_site6269]”: 9.21.
Turning to “AAAAGGAAGATATATACACACATACAAATATATATA [CACACA_site5236]”, the “gcPBM binding intensity (ln)” value was determined as 9.83.
As for CTATTTGGGGGAAGAGTGCATGACATGAATATAAAA, the figure is 9.2.
As for “ATTAGTATTAGATGATGTACATTTATATTGAAATAT [XGTACX_site8537]”, the “gcPBM binding intensity (ln)” value came out at 9.11.
Next, “CTATATTATAAATATACACACATATCTTAAGTATAA [CACACA_site3096]”: 9.33.
Next, “TTTTTTTTTTTTTTCACACACTAATAATATTATCAT [CACACA_site4417]”: 9.27; “ATAAATTTTTAAAAATATGAATTATGTAATTTGTGA [CACACA_negctrl_site1621]”: 9.1.
As for “GAAAACGTTTGAAGTTGTACATATGTATAAAAAGAA [XGTACX_site2304]”, the figure is 9.43.
Consider “ATAAAAATACAGTTAACACACATGTGTATTTATATG [CACACA_site7727]”, for which the “gcPBM binding intensity (ln)” value worked out at 9.63.
Next, “TGTTATTTAAATAATTCTTTTTAAAAGATGAATTAT [CACACA_negctrl_site1226]”: 8.75; “ATGGTCTGTTAAAGATGTACTTTTTAAAAATAAACG [XGTACX_site2583]”: 9.01; “AACAAACACAGACACACACACACACCCAAATGATTA [CACACA_site2431]”: 10.2.
Next, “ATAATATAACACAAATGTACAAAAAATAAATAAATA [XGTACX_site385]”: 9.51; “CATACTCACCAACACACACACACACCCATATAGAAT [CACACA_site592]”: 10.2; “TATATATATACTTAATGTACATATATATATATATAT [XGTACX_site3102]”: 9.1.
As for “CTTTTTGAAATATTAACACACATTTTGTTAATTAAT [CACACA_site4046]”, the “gcPBM binding intensity (ln)” value was determined as 9.33.
As for “CACAGATAAATTAACACACACACACCCATATATATA [CACACA_site3960]”, the figure is 10.1; as for “TATTTATAATAGTGTACACAATTATAAACTGAATAT [CACACA_site6041]”, 9.26.
As for “CAACATATATTAATATGTACATATATATAGATATAT [XGTACX_site4107]”, the figure is 9.3; as for “TATTATTCATAATTTATCTTTTAAATTAAATCACAA [GTGCAC_negctrl_site288]”, 8.66; as for “ATCATAATCATAAAAAGTACAAACGATAAAATAAAT [XGTACX_site3832]”, 9.72.
Regarding “TTACTTAAGAAACACACACACAAAAAAAAAAAAAAA [CACACA_site946]”, the “gcPBM binding intensity (ln)” value came to 9.72.
As for “TTTTTTTCTGTGAGTGCATGTAATAAAATAAATTTA [TGCATGCA_site276]”, the figure is 8.78; as for “TTCAAAAATATATAATGTACACAAATATAAAAGAAT [XGTACX_site1944]”, 9.43; as for “TGTTATTTTAAAAAAAAAATTATTAACTTAAAAAAA [CACACA_negctrl_site1641]”, 8.68.
As for “ATATTATATAATATACGTACATATATTATGCATAAA [XGTACX_site7895]”, the figure is 9.11; as for “ATTAAATACATTAACACACACACAAATATGTACATA [CACACA_site7372]”, 10.1.
“TACGTAGCCACACTAACACACACAAATATGCACAAT [CACACA_site8942]”: the “gcPBM binding intensity (ln)” value worked out at 9.92.
Next, “TTATTCACTTCTTTTTAAAAAAAAAAAAAAAAAAAA [CACACA_negctrl_site223]”: 8.37; “TTGTTAATGGTACGAACACACATATAAAGATGCATA [CACACA_site2044]”: 9.36; “ATAATTTGTGGACACACACACACACCGACATATATA [CACACA_site8718]”: 10.2.
As for “TTATATGAATTTTAGATTTATAATACAAGAATATTC [CACACA_negctrl_site70]”, the figure is 8.88.
Take “ATTTCGAATATTAAGTGTACAATATAAATATATAAA [XGTACX_site6674]”: the “gcPBM binding intensity (ln)” value amounted to 9.18.
As for “AAAAAAAAAAAAAAAAGTACAAATAAAAAAAAAATA [XGTACX_site4814]”, the “gcPBM binding intensity (ln)” value is 9.42.
As for TTATTATAATCATTAGTGCATATATTATTTTTATAT, the figure is 9.24.
“TATATACATATATGTACACACATTACAGATGTACAT [CACACA_site966]”: the “gcPBM binding intensity (ln)” value was found to be 9.45.
As for “AATCTAATATAATGCACACATAAAAAAAAAATCAAA [CACACA_site2714]”, the figure is 9.45.
